These results are taken from paper PMC6938348 (PLoS ONE, 2019).

In general, koff refers to the rate constant with which the complex falls apart. A high value points to a short-lived complex. As a reminder, the kon is a measure of how fast the partners come together. A high value points to faster complex formation.

For assay [1], the target named is T1, Her2 on cells (SKOV3, JIMT-1, MCF7) (Homo sapiens (endogenous in SKOV3, …, UniProt P04626)). The assay can be described thus: cell-based or functional assay.
The target of assay [2] is T1, Her2 on cells (SKOV3, JIMT-1, MCF7). Put plainly: cell-based or functional assay. This is another data set of the same source.
Assay [3] shares this target. The assay can be described thus: cell-based or functional assay. The source holds these as a separate data set.
The target is the same in assay [4]. Put plainly: flow cytometry on cells; saturation binding of full-size antibodies on live low-Her2 MCF7 cells, 4°C 2 h, 0 to 200 nM or 1 μM, washed, anti-human Fc AlexaFluor488-(Fab')2 detection; apparent KD. The settings on record: one partner purified. (Flow cytometry measures light scatter and fluorescence of single cells or particles in a stream.)
The target is the same in assay [5]. Put plainly: flow cytometry on cells; saturation binding of full-size antibodies on live high-Her2 SKOV3 cells, 4°C 2 h, 0 to 200 nM or 1 μM, washed, anti-human Fc AlexaFluor488-(Fab')2 detection; apparent KD. The settings on record: one partner purified.
For assay [6], the target named is T2, soluble Her2 ectodomain (Homo sapiens (assumed; species and …, UniProt P04626).
T2 construct: Her2 ectodomain, soluble
Put plainly: SPR; antibody captured on an anti-hFc CM-5 surface, soluble Her2 ectodomain flowed (monovalent binding); single cycle kinetics in duplicate, 25°C, PBS with 3.4 mM EDTA and 0.05% Tween 20; 1:1 binding model; Biacore T200. The settings on record: both partners purified. On the technique in general: Surface plasmon resonance follows binding to a sensor surface in real time, without labels.

Assay [7] deals with T2, soluble Her2 ectodomain. The assay is described as above. The settings on record: both partners purified. The source holds these as a separate data set.
In assay [8] the target is T2, soluble Her2 ectodomain. The description is as above. The settings on record: both partners purified. This is another data set of the same source.

B1: Herceptin full-size antibody variant 11–9 (H-D98F, H-D31M, L-D28K) (antibody, V domains shown)
VH: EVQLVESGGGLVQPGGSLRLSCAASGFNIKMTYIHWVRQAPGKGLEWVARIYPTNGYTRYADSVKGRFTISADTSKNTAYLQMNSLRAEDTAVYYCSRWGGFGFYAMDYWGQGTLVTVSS
VL: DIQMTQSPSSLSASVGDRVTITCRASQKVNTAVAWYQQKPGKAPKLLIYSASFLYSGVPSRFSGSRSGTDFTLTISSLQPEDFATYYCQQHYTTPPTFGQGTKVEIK
notes: as the heavy chain of m2 with the stated changes; as the light chain of m2 with the stated change; FSA; IgG1 is surmised (Synagis is called the IgG1 isotype control); source: CHO-3E7, co-transfected, purified (MabSelect Sure); copies: 2 + 2
On to B1, for which the “internalization EC50, JIMT-1 cells” value in assay [1] was less than 1 nM. Further, in assay [2], the “IC50 of cytotoxicity, indirect ADC screen (DM1-conjugated secondary antibody), JIMT1 cells” value came to 6.7 nM; the “IC50 of cytotoxicity, indirect ADC screen (DM1-conjugated secondary antibody), MCF7 cells” value was 3 nM; the “IC50 of cytotoxicity, indirect ADC screen (DM1-conjugated secondary antibody), SKOV3 cells” value worked out at 0.0001 nM; the “IC50 of cytotoxicity, indirect ADC screen (MMAE-conjugated secondary antibody), JIMT1 cells” value is 0.2 nM. Also, in assay [2], the “IC50 of cytotoxicity, indirect ADC screen (MMAE-conjugated secondary antibody), MCF7 cells” value is 0.4 nM and the “IC50 of cytotoxicity, indirect ADC screen (MMAE-conjugated secondary antibody), SKOV3 cells” value came to 0.008 nM. Besides, in assay [3], the “IC50 of cytotoxicity, antibody directly conjugated to DM1, SKOV3 cells” value is 0.003 nM; the “IC50 of cytotoxicity, antibody directly conjugated to PNU, JIMT1 cells” value came to 0.08 nM; the “IC50 of cytotoxicity, antibody directly conjugated to PNU, MCF7 cells” value amounted to 1.24 nM; the “IC50 of cytotoxicity, antibody directly conjugated to PNU, SKOV3 cells” value was 0.041 nM. In addition, the Kd in assay [4] was 0.02 nM. In assay [5], the Kd was 0.8 nM. In assay [6], the Kd stood at 0.77 nM. Besides, in assay [7], the koff worked out at 7.7e-05 s⁻¹ and the kon amounted to 100000 M⁻¹ s⁻¹.

B2: Herceptin full-size antibody variant 12–9 (H-D98F, H-D31K, L-D28K) (antibody, V domains shown)
VH: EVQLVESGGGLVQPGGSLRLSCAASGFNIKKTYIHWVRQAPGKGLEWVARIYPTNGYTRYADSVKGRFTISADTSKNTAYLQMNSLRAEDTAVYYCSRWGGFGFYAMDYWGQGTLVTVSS
VL: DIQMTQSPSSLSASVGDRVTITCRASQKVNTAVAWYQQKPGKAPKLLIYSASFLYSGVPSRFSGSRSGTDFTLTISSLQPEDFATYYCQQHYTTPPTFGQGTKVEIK
notes: as for B1
B2: the “internalization EC50, JIMT-1 cells” value in assay [1] was less than 1 nM. In assay [2], the “IC50 of cytotoxicity, indirect ADC screen (DM1-conjugated secondary antibody), JIMT1 cells” value amounted to 1.3 nM; the “IC50 of cytotoxicity, indirect ADC screen (DM1-conjugated secondary antibody), MCF7 cells” value worked out at 3.1 nM; the “IC50 of cytotoxicity, indirect ADC screen (DM1-conjugated secondary antibody), SKOV3 cells” value came to 0.0004 nM; the “IC50 of cytotoxicity, indirect ADC screen (MMAE-conjugated secondary antibody), JIMT1 cells” value was determined as 0.1 nM. In assay [2], the “IC50 of cytotoxicity, indirect ADC screen (MMAE-conjugated secondary antibody), MCF7 cells” value turned out to be 0.5 nM and the “IC50 of cytotoxicity, indirect ADC screen (MMAE-conjugated secondary antibody), SKOV3 cells” value was found to be 0.014 nM. In addition, the Kd in assay [4] was 0.04 nM. Moreover, the Kd in assay [5] was 0.9 nM. For the same molecule, the kon in assay [8] worked out at 6.7e+06 M⁻¹ s⁻¹. For the same molecule, the Kd in assay [6] is 1.06 nM. In assay [7], the off-rate (koff) turned out to be 7e-05 s⁻¹ and the kon stood at 66000 M⁻¹ s⁻¹.
